Assay results taken from ChEMBL document CHEMBL4888484, “Replenishing the malaria drug discovery pipeline: Screening and hit evaluation of the MMV Hit Generation Library 1 (HGL1) against asexual blood stage Plasmodium falciparum ,using a nano luciferase reporter read-out” (2022).
About 540 (0.36%) of roughly 150,000 compounds showed an effect of 50% or more. The list shows a part of the results.

system: Plasmodium falciparum; experiment: Primary screen in NF54 nanoGlo assay, in single point, at 2uM, 72h; a lower Z score goes with more inhibition; assay type: functional, Erythrocyte; details: timepoint 72 hour

Row | Structure (SMILES) | % Inhibition [%] | Z score
1 | CC1CCN2C(=O)N(c3ccc4c(c3)C(=O)NC4=O)C(=O)C2C1 (stereo unspecified) | -5 | 0.7
2 | Cc1cc(C)n(CC(=O)Nc2cn(C)nn2)n1 | -7 | 0.65
3 | O=C(C[C@H](c1ccc(OCc2ccccc2)cc1)c1c[nH]c2ccccc12)NCc1ccccc1 | 2 | -0.21
4 | CCn1nccc1NC(=O)Cn1cc(-c2cc(OC)nc(N)n2)cn1 | -14 | 2.39
5 | CC(C)CC1(NC(=O)N(C)[C@@H](CN(C)C)c2ccccc2)CC1 | 5 | -0.61
6 | C=CCNC(=O)N1CCCc2cc(OC)ccc2C1 | -9 | 1.68
7 | C[C@@H](CCc1nc(C2CC2)n[nH]1)N1CCN(C)CC1 | 0 | 0.05
8 | CC(C)(NCc1cnns1)c1cccc(Cl)c1 | -7 | 1
9 | CCn1ncc(CNC[C@H]2CCCCN(Cc3ccccc3)C2)n1 | -5 | 0.77
10 | COc1ccc(C2=NNC(=O)c3ccccc3C2)cc1OC | -9 | 1.66
11 | CC(C)(C)c1cc(C[C@H]2CNCC[C@H]2CC(=O)N2CCN(Cc3ccccc3)CC2)no1 | 31 | -3.53
12 | CC1(C)C[C@]1(C(=O)N[C@H]1C[C@@H](C(=O)O)C1)c1ccccc1 | 8 | -1.56
13 | CC(C)N(CC1CC2C=CC1C2)S(=O)(=O)c1cnn(C)c1 (stereo unspecified) | -6 | 0.92
14 | O=C(NC[C@H]1CCCN(Cc2ccc3nonc3c2)C1)c1ncn[nH]1 | -10 | 1.27
15 | CN(C[C@H]1CC(=O)N(C(C)(C)C)C1)S(=O)(=O)Cc1cccc(Cl)c1 | 9 | -1.7
16 | Cc1nc(C(=O)N(C)C)ccc1C(=O)OCCc1ccccc1 | -7 | 0.9
17 | Cc1nc(NC[C@H]2CN(C)CCN2C)ccc1Cl | -2 | 0.35
18 | CC[C@H]1COCCN1Cc1c[nH]nc1-c1cc(C)ccc1C | -12 | 1.86
19 | CCC(CC)(CNC1CCCC1)C(=O)O | -1 | 0.16
20 | O=C1NCc2ccc(NCC(=O)N(C3CCCCC3)C3CCCCC3)cc21 | -16 | 2.58
21 | CC1(C)Cc2ccccc2N1Cc1cn(C[C@H]2CCOC2)nn1 | -4 | 0.47
22 | O=C(c1cccc(C(F)(F)F)c1)N1C[C@@H](CO)[C@H](c2ccccn2)C1 | -1 | 0.18
23 | O=C(N/C(=C/c1ccccc1)C(=O)N1CCCCCC1)c1ccc(Cl)cc1Cl | -14 | 1.84
24 | CN1CCC(NC(=O)[C@H]2C[C@@H]2c2ccccc2)CC1=O (stereo partly specified) | -2 | 0.38
25 | Cc1nn(C)c(-n2cccn2)c1C(=O)N1CCN(c2ccccc2F)CC1 | 27 | -3.04
26 | COc1cccc(N2CCN3c4ccccc4CC(C(=O)NC4CCCCC4)C3C2)c1 (stereo unspecified) | 0 | -0.03
27 | O=C(Nc1ccc(N2CCCC2)c2ncccc12)c1cnccn1 | 1 | -0.29

Row | Structure (SMILES) | % Inhibition [%] | Z score
28 | CC(C)Cc1ncc(CNC(=O)N(C)CC2CCCCC2O)s1 (stereo unspecified) | 9 | -1.07
29 | CN(Cc1cccnc1)Cc1nc(C2(O)CCN(CC3CCCCC3)CC2)cs1 | -1 | 0.15
30 | CCn1nc(C)c2c1c(=O)n(CCc1ccccc1)c(=O)n2Cc1c(F)cccc1Cl | -1 | 0.05
31 | COc1cccc2c1[C@H](C(=O)NCc1cn(C)nc1OC)CC2 | -1 | 0.07
32 | Cc1csc(COc2ccc3c(c2)CCC3=O)n1 | 6 | -0.76
33 | NC(=O)[C@H]1CCN(C(=O)c2ccc(Oc3ccc(F)c(F)c3)cc2)C1 | 3 | -0.29
34 | O=C1[C@H]2[C@@H]3CCCN3[C@@]3(C(=O)Nc4ccc(Cl)cc43)[C@H]2C(=O)N1CC1CCCO1 (stereo partly specified) | -11 | 1.59
35 | CN(CCCN=C(N)N1CCOCC1)c1ccccc1F | -6 | 1.03
36 | C[C@@H](c1ccccc1)N1C(=O)C(=O)N(CC=Cc2ccccc2)C1=O | -15 | 2.35
37 | O=C([C@H]1CC(=O)N(C2CCCC2)C1)N1CCN(c2ccccc2)CC1 | -14 | 2.02
38 | O=S(=O)(Cc1cccc(F)c1)N1Cc2cncnc2C1 | -13 | 2.31
39 | CCC(CC)S(=O)(=O)NC(=O)C1CC1C (stereo unspecified) | -15 | 1.9
40 | Cc1cccc(C(=O)N(Cc2csc(COc3cccc4ccccc34)n2)CC(C)C)c1 | -10 | 1.96
41 | CCC1c2ccsc2CCN1CC(=O)NCCNC(=O)CN1CCc2sccc2C1CC (stereo unspecified) | 9 | -1.1
42 | CC(=O)c1cccc(C(=O)N2CCC3(CCC(=O)N3)CC2)c1 | -9 | 1.1
43 | Cc1nc(CC(=O)N2CC[C@@H]3OCc4cccc(c4)Oc4cccc(c4)CCC(=O)N(C)CC(=O)N[C@@H]3C2)cs1 | 6 | -0.81
44 | Nc1nc(N2CC[C@@H](O)C2)cc([C@H]2C[C@@H](O)C2)n1 | -5 | 0.65
45 | Cc1ccc(C)c(C(=O)c2ccccc2C(=O)N2CC[C@H](N)C2)c1 | -5 | 0.59
46 | CC(C)c1cc(CN(C)[C@H]2CS(=O)(=O)C[C@@H]2O)no1 | -11 | 2.16
47 | CN(CCOCc1ncc[nH]1)Cc1ccccc1 | -12 | 2.34
48 | CN1CCc2cc(CN3CCC[C@@H]3Cn3ccnc3)ccc21 | 2 | -0.43
49 | Cc1cc2c(=O)n(CCCN3C(=O)NC(C)(C)C3=O)cnc2cc1F | -2 | 0.26
50 | Fc1ccc([C@H](Cn2cnc3ccccc32)NCc2ccc3cn[nH]c3c2)cc1 | -17 | 2.21
51 | CCN(CC)C(=O)CN1C(=O)C2(NC(C)C3C(=O)N(Cc4ccccc4)C(=O)C32)c2ccccc21 (stereo unspecified) | -7 | 0.92
52 | Cc1cnn(C2CN(CCC(=O)Nc3sccc3C#N)C2)c1 | -1 | 0.22
53 | Cc1onc(C(=O)O)c1CN(Cc1ccc2c(c1)OCO2)C1CC1 | 3 | -0.48
